From publication PMC4336329 (PLoS ONE, 2015)
Among all 310,000 compounds or so, about 14,000 (4.5%) showed an effect of 50% or more. Effects have a minus sign here. The list shows a part of the results.

biological target: human ether-à-go-go-related gene (hERG) potassium channel (human, UniProt Q12809); assay: primary screen, population patch clamp on CHO cells stably expressing hERG
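Note: peak tail current of the secondary pulse compared with the same well before compound.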

Sequence of human ether-à-go-go-related gene (hERG) potassium channel (Q12809 whole entry, looked up): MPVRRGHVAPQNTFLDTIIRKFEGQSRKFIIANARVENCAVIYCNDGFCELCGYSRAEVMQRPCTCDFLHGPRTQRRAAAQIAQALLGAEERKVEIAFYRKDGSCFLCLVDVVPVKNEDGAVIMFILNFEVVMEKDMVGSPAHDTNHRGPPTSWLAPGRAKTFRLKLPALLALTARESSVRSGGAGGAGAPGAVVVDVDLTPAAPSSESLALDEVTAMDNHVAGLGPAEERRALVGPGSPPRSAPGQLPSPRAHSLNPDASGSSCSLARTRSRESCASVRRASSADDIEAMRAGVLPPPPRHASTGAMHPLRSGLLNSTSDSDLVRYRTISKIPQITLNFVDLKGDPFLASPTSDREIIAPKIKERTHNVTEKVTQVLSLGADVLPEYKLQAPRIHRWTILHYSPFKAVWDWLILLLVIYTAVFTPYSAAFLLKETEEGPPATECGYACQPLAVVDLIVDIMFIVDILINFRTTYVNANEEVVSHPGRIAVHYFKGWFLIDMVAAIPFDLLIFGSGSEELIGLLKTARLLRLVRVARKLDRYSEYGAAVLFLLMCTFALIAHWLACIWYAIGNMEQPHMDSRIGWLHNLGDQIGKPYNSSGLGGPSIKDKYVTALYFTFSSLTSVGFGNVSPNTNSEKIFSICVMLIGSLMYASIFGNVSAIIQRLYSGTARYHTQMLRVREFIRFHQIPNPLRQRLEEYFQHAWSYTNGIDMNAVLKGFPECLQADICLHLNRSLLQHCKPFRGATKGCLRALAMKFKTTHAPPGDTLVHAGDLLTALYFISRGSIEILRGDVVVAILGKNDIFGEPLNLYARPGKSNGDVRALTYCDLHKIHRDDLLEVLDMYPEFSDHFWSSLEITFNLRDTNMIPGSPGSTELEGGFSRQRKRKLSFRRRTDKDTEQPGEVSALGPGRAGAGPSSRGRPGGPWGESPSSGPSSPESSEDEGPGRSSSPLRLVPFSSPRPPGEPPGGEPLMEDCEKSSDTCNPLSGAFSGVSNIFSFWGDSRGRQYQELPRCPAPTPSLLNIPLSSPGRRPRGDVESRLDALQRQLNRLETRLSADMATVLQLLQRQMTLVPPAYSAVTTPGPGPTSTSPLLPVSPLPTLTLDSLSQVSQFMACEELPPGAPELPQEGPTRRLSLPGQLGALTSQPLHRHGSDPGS

Row | Compound | hERG current change (%, negative = inhibition) at 10uM [%]
1 | COc1ccccc1NC(=O)CC(=O)CSc1nnc(-c2ccc(C)cc2)n1C | -14.4
2 | COc1cc(NC(=O)CN(c2ccc(C)cc2)S(=O)(=O)c2c(C)nn(C)c2C)cc(OC)c1 | -5.35
3 | Cc1oc2c(c(C)cc3oc(=O)c(CC(=O)NCCCN4CCCC4=O)c(C)c32)c1C | -0.519
4 | Cc1cccc(CCNC(=O)CNS(=O)(=O)c2ccc3nc(C)sc3c2)c1 | -12
5 | CC(=O)c1sc(Nc2nc(C)cc(C)n2)nc1C | -6.22
6 | CN(C)c1ccc(/C=N/NC(=O)c2ccc(Cn3cc(Br)cn3)o2)cc1 | -46.1
7 | CCOC(=O)C1=NN(c2cccc(C)c2)C2(S1)SC(C(C)=O)=C(C)N2c1ccccc1 (centres unmarked) | 8.94
8 | CCOC(=O)c1ccc(N=C(c2ccccc2)c2c(O)n(C)c(=O)n(C)c2=O)cc1 | 7.79
9 | COC(=O)CN1C(=S)N(c2ccc(Cl)cc2)C(=O)C1CC(=O)Nc1ccc(Cl)cc1 (centres unmarked) | 5.84
10 | O=C(CCNS(=O)(=O)c1ccc(Cl)cc1)NCc1cccs1 | 6.1
11 | COc1ccc(C)cc1Nc1n[n+](-c2ccccc2)c(-c2ccc(SC)cc2)s1.[Cl-] | -1.4
12 | O=C(CCCc1ccccc1)NC12CC3CC(CC(C3)C1)C2 | -1.26
13 | CC1CCN(C(=O)c2[nH]cnc2C(=O)N2CCN(c3ccccc3)CC2)CC1 | 14.2
14 | CCCCn1nnnc1NCc1cc(OC)c(OC)cc1OC | 0.567
15 | CCCCN1C(=O)C2C(C(=O)Nc3cccc(OC)c3)C3C=CC2(O3)C1C(=O)NC1CCCCC1C (centres unmarked) | 0.947
16 | Cc1ccccc1C(=O)N1CCN(c2ncccn2)CC1 | 16.8
17 | CC(C)(C)OC(=O)N1CCC(C(=O)N[C@@H](Cc2c[nH]c3ccccc23)C(=O)O)CC1 | 24
18 | Cl.OC(COCc1ccccc1)CN1CCc2ccccc2C1 (centres unmarked) | -25.7
19 | CC(C)Sc1nnc([C@@H](N)Cc2c[nH]c3ccccc23)o1.Cl | 5.51
20 | c1ccc2c(c1)CNc1ccccc1C2 | 0.828
21 | COc1ccc(CCNC(=O)C(=O)NCCC2CCCCN2S(=O)(=O)c2cccs2)cc1 (centres unmarked) | -19.1
22 | CCOc1cc(C(=O)N2CCc3cc(OC)c(OC)cc3C2)ccc1OC(F)F | -35.7
23 | CCSC(SCC)[C@H](O)[C@@H](O)[C@H](O)[C@H](O)CO | -6.03

Row | Compound | hERG current change (%, negative = inhibition) at 10uM [%]
24 | C=CCn1c(COc2ccc(F)cc2)nnc1SCC(=O)NC1CCCC1 | -27.5
25 | CCCC(=O)Nc1ccc(NC(=O)c2ccccn2)cn1 | -8.57
26 | C/C(Cc1ccccc1)=N\NC(=O)CNC(=O)c1ccc(Cl)cc1 | -13.5
27 | COc1ccc(S(=O)(=O)NCC2CCCN(C(=O)CN3CCCCC3)C2)cc1 (centres unmarked) | 13.3
28 | Cc1nc(-c2ccccn2)sc1C(=O)O | 16.7
29 | CC(=O)c1ccc(NC(=O)/C(Cl)=C/c2ccccc2)cc1 | 18.5
30 | CCOC(=O)c1c(NC(=O)C2C3C=CC(CC3)C2C(=O)O)sc(C)c1CC (centres unmarked) | -2.01
31 | Cc1ccc(CN(c2ccc(C(=O)NCC3CCCO3)cc2)S(C)(=O)=O)cc1 (centres unmarked) | 1.91
32 | Cc1ccc(NC2=NC(C(=O)Nc3ccc(C)c(C)c3)CC(=O)N2)cc1 (centres unmarked) | -8.08
33 | CN1CCN(C(=O)c2cccn(Cc3cccc(Cl)c3)c2=O)CC1 | 23
34 | CC(=O)Nc1ccc(C(=O)N/N=C/c2cc(Br)cc(Br)c2O)cc1 | 12.4
35 | COc1ccc(-c2nc(/C=C3\C(C)=Nc4ccccc43)c(O)o2)cc1 | 6.27
36 | CN1CCc2nc3sc(C(=O)C45CC6CC(CC(C6)C4)C5)c(N)c3cc2C1 | -12.7
37 | O=C(Nc1ccsc1C(=O)O)c1ccc(Cl)cc1 | 27.9
38 | COc1cc(CC(=O)OCC(=O)N2CCCCC2C)cc(OC)c1OC (centres unmarked) | 6.28
39 | CN(Cc1ccccc1)C(=O)COC(=O)c1ccccc1Nc1ccccc1 | 13
40 | CN(C)c1[nH]c(=O)c(C#N)c2c1CCN2Cc1ccccc1 | 1.46
41 | CCN1C(=O)NC(=O)/C(=C\c2cn(CC(=O)N3CCCCC3C)c3ccccc23)C1=O (centres unmarked) | 4.42
42 | COc1cccc(-c2noc(-c3cccnc3)n2)c1 | 3.69
43 | COc1ccccc1-c1ccc(=O)n(CC(=O)Nc2ccc(C(=O)N3CCCC3)cc2)n1 | -27.6
44 | C[C@H](NC(=O)c1nc[nH]c1C(=O)NCCCCC[NH3+])C(=O)OC(C)(C)C.[Cl-] | 12.8
45 | CCOc1ccc(N2C(=O)CC(NCc3ccc(F)cc3)C2=O)cc1 (centres unmarked) | -19.4
46 | CC1(C)Cc2c(sc(NC(=O)COc3ccc(Cl)cc3)c2C#N)C(C)(C)N1 | -9.35

Row | Compound | hERG current change (%, negative = inhibition) at 10uM [%]
47 | CCOc1ccc(S(=O)(=O)N2CCN(CC)CC2)cc1NC(=O)c1ccccc1F | -16.6
48 | Cc1cc(C)c(OCCNC(=O)c2ccccc2Sc2ccccc2C#N)c(C)c1 | 6.79
49 | O=C(NCc1ccncc1)C(F)(F)C(F)(F)C(=O)NCc1ccncc1 | -2.17
50 | COC(OC)c1ccc(C#N)c(SCc2ccc(C)cc2)n1 | -12.6
51 | CC(C)Cc1ccc(C(C)C(=O)O)cc1 (centres unmarked) | -4.56
52 | C/C=C(\C)C(=O)NNC(=O)c1sc(-c2ccccc2)nc1C | 16
53 | Cc1ccc(NC(=O)c2oc3c(c2C)C(=O)CC(C)(C)C3)cc1 | 4.24
54 | CC(C)c1ccc(OCC(=O)NNC(=S)NC(=O)C2CC2)cc1 | 17.9
55 | CCOC(=O)C1(CCOc2ccccc2)CCN(Cc2cccc(F)c2)CC1 | -65.4
56 | COc1cc(COCC(O)CN2CCCCC2C)cc(OC)c1OC.Cl (centres unmarked) | 20.6
57 | CC(C)n1nnnc1-c1ccc(Cl)cc1 | 6.37
58 | O=C1/C(=C/c2ccccn2)SC(=S)N1Cc1ccccc1 | 5.91
59 | Cc1cc(C)nc(SCC(=O)OCN2C(=O)c3ccccc3C2=O)n1 | -8.92
60 | CC(=O)Nc1ccc(N/C=C2/CCCC2=O)cc1 | 5.74
61 | CN1CCN(S(=O)(=O)c2ccc(N3CCN(C(c4ccccc4)c4ccccc4)CC3)nc2)CC1 | 16.9
62 | CC1CCCCN1C(=S)Nc1ccc(OC(F)F)cc1 (centres unmarked) | -40.1
63 | C/C(=N\NC(=O)C(N)=O)c1ccc2c(c1)OCCO2 | 9.05
64 | Cc1cccc(NC(=O)c2cnc3scc(C)n3c2=O)c1 | 2.46
65 | C=CCn1c(P(=O)(O)c2ccccc2)nc2ccccc21 | 11.8
66 | CC1(C)C2CCC1(CS(=O)(=O)N1CCCc3ccccc31)C(=O)C2 (centres unmarked) | -6.26
67 | CC(C)C(OC(=O)C1=Cc2ccccc2OC1)C(=O)NC1CCCC1 (centres unmarked) | 11.1
68 | CC1CCC2(CC1)NC(=O)N(CC(=O)NCc1ccc(F)cc1)C2=O (centres unmarked) | -21.2
69 | COC(=O)C(O)(c1ccc(N(C)C(=O)c2cccs2)cc1)C(F)(F)F (centres unmarked) | 9.51

Row | Compound | hERG current change (%, negative = inhibition) at 10uM [%]
70 | COc1ccc(Nc2oc(-c3ccccc3Cl)nc2C#N)cc1 | 2
71 | FC(F)=C(F)CCSc1ncn[nH]1 | 18.3
72 | Cc1cc(NC(=O)C2CC2)ccc1NC(=O)c1cccs1 | 10.4
73 | CCN(c1ccccc1)S(=O)(=O)c1ccc(C(=O)Oc2ccc(C(C)=O)cc2)cc1 | 8.41
74 | COc1ccc(C(CC(=O)c2ccc(O)cc2)S(=O)(=O)c2ccc(C)cc2)cc1 (centres unmarked) | -4.95
75 | COc1ccc(NC(=O)COC(=O)c2ccc(C)c(S(=O)(=O)N3CCCCC3)c2)cc1 | -15.5
76 | S=C1NC2(CCCC2)Nc2ccccc21 | 3.67
77 | Oc1c(Br)cc(Br)cc1/C=N/n1c(-c2ccccc2)n[nH]c1=S | 17.6
78 | COc1ccc(N2CCN(S(=O)(=O)CC34CCC(CC3=O)C4(C)C)CC2)cc1 (centres unmarked) | 20.7
79 | COc1ccc(C)cc1NC(=O)C(OC(=O)c1cccc(S(=O)(=O)N(C)c2ccccc2)c1)c1ccccc1 (centres unmarked) | 15.1
80 | Cc1ccc(S(=O)(=O)N2CCC(C(=O)NNC(=O)c3ccc(F)cc3)CC2)cc1 | 11.2
81 | O=C(CSc1nc2ccccc2c(=O)n1-c1ccc(OC(F)F)cc1)NC1CC1 | -13.8
82 | O=C1C=C(N2CCOCC2)C2(CCCCC2)O1 | 17.8
83 | Cc1ccc(NS(=O)(=O)c2ccc(C(=O)NNC(=O)c3ccccc3O)cc2)cc1 | 0.906
84 | CCc1ccc2c(c1)CCCN2C(=O)c1ccccc1C(=O)O | -33.2
85 | CCN(CC(=O)Nc1c(F)cccc1F)C(=O)C1CC(=O)N(c2ccccc2OC)C1 (centres unmarked) | 12.1
86 | COc1cc(CNc2ccc(N3CCCC3)cc2)ccc1OCc1ccccc1 | 16.1
87 | Cc1sc2ncnc(SCC(=O)c3ccc(Cl)s3)c2c1C | 18.3
88 | Nc1nc(N)nc(-c2ccc(Cl)c(Cl)c2)n1 | -5.05
89 | NC(=O)Nc1ccccc1C(=O)NCCc1ccccc1 | -2.67
